From PubChem BioAssay AID1745853 (National Center for Advancing Translational Sciences (NCATS), 2022)
This is one part of the list. Further columns of the screen follow, without active or inactive calls.

Tests used:
Experiment in all cases: Primary Screen for Target Class Profiling of Small Molecule Inhibitors of Methyltransferases
[1] = target: Glycine N-methyltransferase (Homo sapiens) (UniProt Q14749); conditions: purified enzyme, MTase-Glo SAH luminescence; measured here: GNMT inhibition; at 40 µM; stronger effect = lower value
Summary of the method: (§1)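 Each enzyme was assayed with SAM and its substrate. SAH formation detected by MTase-Glo luminescence; single-point 40 uM screen[…].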

[2] = target: Guanidinoacetate N-methyltransferase (Homo sapiens) (UniProt Q14353); conditions: purified enzyme, MTase-Glo SAH luminescence; measured here: GAMT inhibition; at 40 µM; stronger effect = lower value
Summary of the method: as §1

[3] = target: Histamine N-methyltransferase (Homo sapiens) (UniProt P50135); conditions: purified enzyme, MTase-Glo SAH luminescence; measured here: HNMT inhibition; at 40 µM; stronger effect = lower value
Summary of the method: as §1

[4] = target: Nicotinamide N-methyltransferase (Homo sapiens) (UniProt P40261); conditions: purified enzyme, MTase-Glo SAH luminescence; measured here: NNMT inhibition; at 40 µM; stronger effect = lower value
Summary of the method: as §1

[5] = target: Phenylethanolamine N-methyltransferase (Homo sapiens) (UniProt P11086); conditions: purified enzyme, MTase-Glo SAH luminescence; measured here: PNMT inhibition; at 40 µM; stronger effect = lower value
Summary of the method: as §1
% is set by controls: 0 for no effect and ±100 for the full control effect.

| SMILES | activity change, negative = inhibition [1] | activity change, negative = inhibition [2] | activity change, negative = inhibition [3] | activity change, negative = inhibition [4] | activity change, negative = inhibition [5] |
| --- | --- | --- | --- | --- | --- |
| Cc1ccsc1CN1CCc2[nH]nc(C(=O)N(C)C)c2C1 | -7.76% | -8.69% | -3.97% | -18.9% | -8.14% |
| O=S(=O)(c1ccccc1)c1nnn2c1nc(NCCc1ccc(Cl)cc1)c1ccccc12 | -3.33% | 5.53% | 1.08% | -1.03% | -3.51% |
| C[C@H](NC(CCc1ccccc1)C(=O)O)C(=O)N1CCC[C@H]1C(=O)O (stereo partly drawn) | -6.84% | 3.61% | 0.808% | -5.27% | 2.17% |
| O=C(c1cc[n+]([O-])cc1)N1CCC2(CCCN(CCC3CCCCC3)C2)C1 (stereo not drawn) | -2.29% | -0.67% | -2.13% | -12% | 11% |
| O=c1c(-c2ccc(O)cc2)coc2cc(O)ccc12 | -6.16% | 3.05% | -0.645% | -13.1% | -5.47% |
| Cc1cccc(N2CCN(C(=O)c3ccc4c(=O)[nH]c5c(C(=O)NC(C)C)sc(=S)n5c4c3)CC2)c1C | -61.2% | -0.081% | -25.7% | -64% | -13.8% |
| CCNC(=O)N1CC(C(=O)NCc2cccc(C)c2)CC(c2ccc(F)c(C)c2)C1 (stereo not drawn) | -9.73% | -10.5% | -7.49% | -26.5% | -14.5% |
| C[C@@H]1CN(C(=O)c2cc(S(N)(=O)=O)ccc2F)CC[C@]1(C)O | -3.39% | -4.65% | -1.1% | -10.7% | -6.16% |
| CC1(C)CC[C@]2(C(=O)O)CC[C@]3(C)C(=CC[C@@H]4[C@@]5(C)CC[C@H](O)C(C)(C)[C@@H]5CC[C@]43C)[C@@H]2C1 | – | 1.45% | – | -14.7% | 2.3% |
| CN1CCCn2nc(C(=O)N(C)Cc3nc4ccc(Cl)cc4[nH]3)cc2C1 | -1.35% | 1.18% | -1.06% | -1.46% | 2.87% |
| COc1ccc(CCCN2CCC(COC(c3ccccc3)c3ccccc3)CC2)cc1 | 5.87% | 11% | 5.42% | -22% | 1.58% |
| CC(C)C(=O)N1CCC(c2nc(-c3cccnn3)no2)CC1 | -2.23% | -4.99% | 3.64% | 0.996% | 0.845% |
| O=C(O)/C=C/c1ccc2occc2c1O[C@@H]1O[C@H](CO)[C@@H](O)[C@H](O)[C@H]1O | 3.72% | 8.37% | 9.62% | -1.72% | 5.74% |
| CS(=O)(=O)N1CCC2(CC1)CN(C(=O)c1ccc(N)nc1)Cc1ccccc1O2 | -5.59% | -3.84% | -7.93% | -11.6% | -4.37% |
| CC1(C(=O)NC2CCCC2)Cn2cnc(C(=O)NCc3cccc(Cl)c3)c2C(=O)N1C1CC1 (stereo not drawn) | 0.696% | 0% | 7.75% | -5.54% | 2.42% |
| CCC1c2ccc(C)n2CCN1C(=O)Nc1ccc(F)c(Cl)c1 (stereo not drawn) | -0.31% | 0% | 1.58% | -4.11% | -2.35% |
| Cc1cc2c(cc3n2CC(C)(C(=O)NC2CCCCCCC2)N(Cc2ccccn2)C3=O)o1 (stereo not drawn) | -2.49% | 5.09% | 4.83% | -6.61% | 0.337% |
| C[C@]1(OC(=O)/C=C/c2ccc(O)cc2)C[C@@H](O)[C@]2(O)C=CO[C@@H](O[C@@H]3O[C@H](CO)[C@@H](O)[C@H](O)[C@H]3O)C12 (stereo partly drawn) | -1.67% | -4.51% | 7.2% | -17.7% | 1.81% |
| CC(C)NC[C@H](O)COc1cccc2ccccc12 | -3.5% | 3.15% | -14.1% | -9.06% | 1.51% |
| CC1CCCCC1NC(=O)C1(C)Cn2c(cc3sccc32)C(=O)N1Cc1ccco1 (stereo not drawn) | -1.28% | 0.443% | 0.272% | -0.602% | 1.04% |
| CCC1Oc2ccc(NC(=O)c3ccccc3OC(C)=O)cc2CN(Cc2ccccc2F)C1=O (stereo not drawn) | -6.16% | -6.2% | -6.91% | -6.35% | -7.02% |
| C[C@H]1O[C@@H](n2cc(F)c(=O)[nH]c2=O)[C@H](O)[C@@H]1O | -3.22% | 8.19% | 0.45% | 1.05% | 8.88% |
| Cc1nc(NCC2(c3ccccc3)CCOCC2)cc(C2CC(O)C2)n1 (stereo not drawn) | -1.34% | -4.05% | -2.17% | -2.24% | -3.13% |
| Cc1ccc2nc(Nc3ccc4[nH]c(=O)[nH]c4c3)c(-n3nc(C)cc3C)nc2c1 | -7.43% | 0.39% | 2.57% | 3.29% | -3.15% |
| CC(C)(C)c1nc(-c2cccc(NS(=O)(=O)c3c(F)cccc3F)c2F)c(-c2ccnc(N)n2)s1 | -7.69% | -0.548% | -2.67% | -20.2% | -8.09% |
| Cc1[nH]nc2c1C(c1c(F)cccc1F)C(C#N)=C(N)O2 (stereo not drawn) | -8.5% | 2.09% | -7.41% | -10.1% | 6.29% |
| COc1ccnc(-c2nnc3ccc(Nc4cc(OC)c(OC)c(OC)c4)nn23)c1 | -34.7% | -29.7% | -54.4% | -36.4% | -17% |
| CNCCN1C(=O)CC[C@H]2CN(Cc3cc(C4CCCCC4)no3)CC[C@H]21 | -2.22% | -4.3% | -2.99% | -8.97% | -2.79% |
| O=[N+]([O-])c1nccn1CO[C@@H](CO)[C@H](O)CO | 3.85% | 8.96% | 8.59% | -4.3% | 4.49% |
| CCC(C)NC(=O)c1ccc2c(=O)n(C3CC3)c3nn(CC(=O)NC(C)C)c(=O)n3c2c1 (stereo not drawn) | 4.96% | 0.419% | 5.33% | 3.92% | 5.39% |
